# According to PubChem BioAssay AID492948 (National Center for Advancing Translational Sciences (NCATS), 2010):
# The shares of active, inactive and inconclusive entries below differ from those in the screen. No potency is given beside an inconclusive call; the fits are too rough. Active and inactive are the calls of the source. Calls come from the whole dose curve; as a rule, active = well fitted activation curve with a large enough effect; inconclusive = small, poorly fitted or top-dose-only effect; inactive = no such curve, though single readings can be large or run the other way.
# Experiment: qHTS Assay for Agonists of the Relaxin Receptor RXFP1: V1B Hit Validation;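 note: counter-screen in HEK293 cells expressing V1B rather than RXFP1 for selectivity; nearly all actives have a fitted effect of over 65% in size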;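 for activation: cAMP accumulation with PDE4 inhibitor Ro 20-1724 present during compound exposure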
# Outline: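 cAMP accumulation, read by TR-FRET competition after lysis, in V1B-expressing HEK293 cells given compound for 30 min at 37C with Ro 20174 present. Responses scaled between buffer basal and 29 nM porcine relaxin; Hill-equation EC50.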
# Potency is the fitted concentration of half-maximal effect; tags give direction and shape of the fitted curve.
row,Compound,Potency
1,NCCNC(=O)Cc1ccc(NC(=O)Cc2ccc(Nc3ncnc4c3ncn4[C@@H]3O[C@H](CO)[C@@H](O)[C@H]3O)cc2)cc1,active: 2.75 µM
2,Cc1cc(Br)c2nc3c(c(C(=O)O)c2c1)CCCCC3,active: 1.54 µM
3,Cc1[nH]n(-c2ccc([N+](=O)[O-])cc2)c(=O)c1C=NCCN1CCN(C(=O)C(C)C)CC1,"inconclusive [activator, partial curve]"
4,CC(C)CC(OC(=O)c1nsc(Cl)c1Cl)C(=O)NCC1CCCO1 (centres undefined),"inconclusive [activator, partial curve]"
5,Cn1c(=O)c2c(nc(SCC(=O)N3CCOCC3)n2C)n(C)c1=O,"inconclusive [activator, partial curve]"
6,Cc1ccccc1OCC(=O)Nc1sc(C(=O)Nc2cccc(C)c2C)c(C)c1C#N,active: 6.15 µM
7,Cc1cccc(-c2nnc(SCC(=O)NC3CC3)n2C)c1,inactive
8,CCN(CC)C(=O)CSc1nnc2c3ccccc3n(C)c2n1,"inconclusive [activator, partial curve]"
9,Cc1nnc(Nc2ccc(S(N)(=O)=O)cc2)c2ccccc12,"inconclusive [activator, partial curve]"
10,O=C(NC1CCCCCC1)c1cc2c(=O)n3ccccc3nc2s1,active: 38.9 µM
11,Cc1nn(CCCC(=O)NCc2ccc(F)cc2)c(=O)c2nccn12,active: 38.9 µM
12,O=C(OCc1cccc([N+](=O)[O-])c1)c1cnccn1,"inconclusive [activator, partial curve]"
13,Cc1cccn2c(=O)c3cc(C(=O)NCc4ccc(F)cc4)c(=N)n(CC4CCCO4)c3nc12 (centres undefined),"inconclusive [activator, partial curve]"
14,Cc1ccc(C(=O)Nc2ccccc2C(N)=O)o1,inactive
15,Cc1cc(C)n(C(=O)CCCn2cc([N+](=O)[O-])cn2)n1,"inconclusive [activator, partial curve]"
16,Cc1c(C(=O)NNc2cc(=O)n(C)c(=O)n2C)cccc1[N+](=O)[O-],"inconclusive [activator, partial curve]"
17,Cn1c(=O)c2sccc2n2c(CCCC(=O)NC3CCN(Cc4ccccc4)CC3)nnc12,"inconclusive [activator, partial curve]"
18,Cn1c(=O)c2sccc2n2c(CCCC(=O)NCCc3ccc(S(N)(=O)=O)cc3)nnc12,"inconclusive [activator, partial curve]"
19,CCOc1ccccc1NC(=O)CSc1ccc2nnc(-c3cccnc3)n2n1,"inconclusive [activator, partial curve]"
20,CCOC(=O)CNC(=O)CSc1ccc2nnc(-c3cccnc3)n2n1,inactive

row,Compound,Potency
1,Cc1cc(NC(=O)c2ccccc2F)nc2c1c(=O)oc1ccccc12,active: 21.8 µM
2,O=C(Nc1ccccc1C(=O)N1CCNCC1)c1ccco1,inactive
3,O=C(Nc1ccccc1C(=O)Nc1ccccc1)c1ccco1,inactive
4,CCN(CC)S(=O)(=O)c1ccc(N2CCOCC2)c(NC(=O)c2cccc(C#N)c2)c1,active: 47.3 µM
5,COC(=O)c1c(NC(=O)c2cccc(N3C(=O)CCC3=O)c2)sc2c1CCN(C(C)=O)C2,"inconclusive [activator, partial curve]"
6,CC(=O)C1C(c2ccccc2)c2c(noc2C)CC1(C)O (centres undefined),inactive
7,COC(=O)[C@@H]1C[C@@]2(O)[C@H](O)[C@H](O)[C@H](O)C[C@H]2N1Cc1cc(F)ccc1F,inactive
8,O=C(Nc1ccccc1C(=O)NC1CCCCC1)c1ccco1,"inconclusive [activator, single point]"
9,COc1ccc(C=O)cc1CN1C(=O)c2ccccc2C1=O,"inconclusive [activator, partial curve]"
10,COC(=O)c1ccc(COc2ncnc3ccccc23)o1,"inconclusive [activator, partial curve]"
11,O=C1c2cccnc2C(=O)N1Cc1ccc(F)cc1S(=O)(=O)NCc1ccco1,"inconclusive [activator, partial curve]"
12,Cc1cc(C)nc(NS(=O)(=O)c2ccc(NC(=O)c3nn(-c4ccccc4)ccc3=O)cc2)n1,active: 15.5 µM
13,COc1cccc(NC(=O)Cn2c3ccc(OC)cc3c3nc4n(c(=O)c32)CCS4)c1,"inconclusive [activator, full curve]"
14,COc1ccc(/C=N/NC(=O)Cn2cnc3c2c(=O)n(C)c(=O)n3C)c(OC)c1OC,"inconclusive [activator, partial curve]"
15,Cc1ccc(CNC(=O)CCc2nnc3ccc(N4CCC5(CC4)OCCO5)nn23)cc1,"inconclusive [activator, partial curve]"
16,CCc1nn(CC(=O)NCCCN2CCOCC2)c(=O)c2cc3sccc3n12,"inconclusive [activator, partial curve]"
17,O=C(Cn1nc(-c2cccc([N+](=O)[O-])c2)c2ccccc2c1=O)NCC1CCCO1 (centres undefined),"inconclusive [activator, partial curve]"
18,O=C(C1CCN(c2ncnc3c2sc2cccc(F)c23)CC1)N1CCCC1,"inconclusive [activator, partial curve]"
19,CCN(CC)CCCN1C=C2C(=O)C(C)(OC(=O)C3CCCC3)C(=O)C=C2C=C1c1ccsc1 (centres undefined),inactive
